The text below walks through data of the supplement of paper PMC4723716.

± gives the uncertainty stated by the source. In all, about 9,900 compounds were measured (“viability index relative to DMSO control”: median about 1, lowest 2% from about 0.85 on). The list shows a part of the results.

The test has as its system Plasmodium falciparum NF54 stage V gametocytes. Put plainly: viability index relative to DMSO control (fraction); higher = less gametocyte killing. The following applies: 2.5 µM, library set: Broad Institute DOS, incubation time: 72 h. The method in brief: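 Gametocytes (P. falciparum NF54, stage V) were treated with compound at 2.5 µM for 72 hr at 37°C in low oxygen, in serum-free medium at 0.75% gametocytemia and 1.25% hematocrit. Counts of 20–70 µm2 red particles, taken from one field per well after MitoTracker Red CMXRos with saponin, were divided by the plate mean of solvent-only wells. This ratio is the viability index.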
Take `CO[C@@H]1CN(C)C(=O)c2ccc(NS(C)(=O)=O)cc2OC[C@@H](C)N(CC2CC2)C[C@@H]1C`: the viability index came out at 1.07 ± 0.034.
`C[C@@H]1CCCCO[C@@H](CN(C)C(=O)C2CCCCC2)[C@H](C)CN([C@@H](C)CO)C(=O)c2cc(NS(=O)(=O)c3ccccc3)ccc2O1` showed a viability index of 1.07 ± 0.034.
In the case of `O=C(C[C@@H]1C=C[C@@H](NC(=O)C2CCC2)[C@H](CO)O1)NC1CCCCC1` it was 0.977 ± 0.18.
With `N#C[C@H]1[C@H](c2ccc(C#Cc3ccccc3F)cc2)[C@H](CO)N1C(=O)c1cccnc1`, the viability index is 1.05 ± 0.026.
As for `COc1ccc(C#Cc2ccc3c(c2)[C@H]2[C@H](CCN2S(=O)(=O)c2ccccc2C)[C@@H](CO)N3C)cc1`, the viability index is 1.07 ± 0.0059.
In turn, `O=C(C[C@H]1CC[C@H]2[C@@H](COC[C@H](O)CN2CC2CCOCC2)O1)NCc1ccc(Cl)cc1` yielded a viability index of 1.05 ± 0.046.
`CCCC(=O)Nc1ccc2c(c1)OC[C@H](C)N(S(=O)(=O)c1cn(C)cn1)C[C@H](C)[C@@H](OC)CN(C)C2=O` yielded a viability index of 1.11 ± 0.086.
Consider `CCCN1C[C@H](C)[C@H](OC)CN(C)C(=O)c2cc(NC(=O)Nc3cccc(F)c3)ccc2OC[C@@H]1C`, for which the viability index came out at 1.08 ± 0.033.
Compound `C[C@@H]1CN([C@@H](C)CO)C(=O)c2cc(NS(=O)(=O)c3cn(C)cn3)ccc2O[C@@H]1CN(C)C(=O)Nc1cccc2ccccc12` had a viability index of 0.97 ± 0.055.
On to `CC(C)[C@H]1COCc2cn(nn2)CCC[C@@H](C)C(=O)N1`, for which the viability index amounted to 0.919 ± 0.12.
The compound `CN1C(=O)c2cc(NS(=O)(=O)c3cccc(F)c3)ccc2OC[C@H]2O[C@@H](CC(=O)N3CCc4ccccc4C3)CC[C@@H]21` returned a viability index of 1.02 ± 0.04.
The value for `C/C=C/c1ccc([C@@H]2[C@H]3CNC[C@@H]2N3C(=O)NC2CCCCC2)cc1` was 1.044 ± 0.0029.
In the case of `COc1ccc([C@@H]2C/C=C\C[C@H](c3ccc4c(c3)OCO4)NC(=O)CCC(=O)N2)c(OC)c1` it was 1.08 ± 0.012; in that of `C[C@H](CO)N1C[C@H](C)[C@@H](CN(C)C(=O)NC2CCCC2)OCc2cnnn2CCCC1=O`, 0.992 ± 0.098; in that of `COCC(=O)N1C[C@@H]2[C@H](c3ccccc31)[C@H](CO)N2Cc1cc(F)ccc1F`, 1.02 ± 0.14.
`C[C@@H]1CN([C@@H](C)CO)C(=O)c2cccc(N(C)C)c2O[C@H]1CN(C)C(=O)Nc1ccc(F)cc1`: the viability index was determined as 0.916 ± 0.068.
In turn, `C[C@@H]1CN([C@H](C)CO)C(=O)Cc2cc(N(C)C)ccc2O[C@@H]1CN(C)C(=O)NC1CCCCC1` came in with a viability index of 0.981 ± 0.11.
As for `O=C(C[C@@H]1C=C[C@H](NC(=O)c2cnccn2)[C@H](CO)O1)NCc1ccccc1F`, the viability index is 1.03 ± 0.18.
In the case of `OC[C@@H]1[C@@H](c2ccccc2)C2(CN(Cc3cccnc3)C2)N1Cc1ccncc1` it was 1.17 ± 0.018.
Regarding `CN1c2ccc(C#Cc3cccnc3)cc2[C@@H]2[C@@H](CCN2C(=O)c2cccc(F)c2)[C@H]1CO`, the viability index was found to be 1.05 ± 0.18.
Consider `O=C(c1cnccn1)N1CC(=O)N2[C@@H](CO)[C@@H](c3ccc(C#CC4CC4)cc3)[C@@H]2C1`, for which the viability index was found to be 1.02 ± 0.022.
As for `Cc1ccccc1-c1ccccc1[C@H]1[C@@H](C#N)N(C(=O)c2ccc(F)cc2)[C@H]1CO`, the viability index was 1.11 ± 0.026.
In the case of `CC1C=NC(S(=O)(=O)N2CC[C@@H]3[C@H](CO)N(C)c4ccc(C5=CCCCC5)cc4[C@@H]32)=N1` (some centres undefined) it was 1.06 ± 0.032; in that of `COCC#Cc1ccc2c(c1)O[C@H](CN(C)C(=O)C1CCOCC1)[C@H](C)CN([C@@H](C)CO)S2(=O)=O`, 1.016 ± 0.0031; in that of `Cn1cnc(S(=O)(=O)N2CCCCN3[C@H](CO)[C@H](c4ccc(C5=CCCCC5)cc4)[C@@H]3C2)c1`, 1.05 ± 0.095.
Compound `CO[C@H]1CN(C)C(=O)c2cc(NC(=O)Nc3cccc(Cl)c3)ccc2OC[C@@H](C)N(C(=O)Nc2c(C)noc2C)C[C@H]1C` showed a viability index of 1.118 ± 0.011.
In turn, `COC(=O)C[C@@H]1CC[C@@H]2[C@H](COC[C@H](O)CN2S(=O)(=O)c2ccccc2OC)O1` registered a viability index of 1.03 ± 0.083.
With `COc1cccc(NC(=O)N2C[C@@H](O)COC[C@@H]3O[C@H](CC(=O)N(C)C)CC[C@H]32)c1`, the viability index worked out at 0.976 ± 0.084.
For the compound `C[C@H]1CN([C@@H](C)CO)S(=O)(=O)c2ccc(C#CC(C)(C)O)cc2O[C@@H]1CN(C)Cc1ccc(F)cc1`, the viability index is 0.9938 ± 0.0061.
Consider `COc1ccc(S(=O)(=O)N2C[C@H](O)COC[C@H]3O[C@@H](CC(=O)N[C@@H]4CCN(Cc5ccccc5)C4)CC[C@@H]32)cc1`, for which the viability index came to 1.04 ± 0.016.
In the case of `COc1ccc([C@H]2C/C=C/C[C@@H](C)Oc3ccccc3C(=O)N(C)[C@H](Cc3ccccc3)C(=O)N2)c(OC)c1.COc1ccc([C@H]2C/C=C\C[C@@H](C)Oc3ccccc3C(=O)N(C)[C@H](Cc3ccccc3)C(=O)N2)c(OC)c1` it was 0.954 ± 0.074.
For `CCCC#Cc1ccc([C@@H]2[C@@H](C#N)N(C(=O)CN3CCOCC3)[C@H]2CO)cc1`, the viability index came out at 1.05 ± 0.011.
On to `CCC(=O)N1[C@@H]2c3ccc(-c4ccccc4F)c(=O)n3C[C@H]1[C@H](CO)[C@H]2C(=O)NC1CCC1`, for which the viability index came to 1.06 ± 0.031.
In the case of `CO[C@@H]1CN(C)C(=O)c2cc(NC(C)=O)ccc2OC[C@H](C)N(C(=O)Cc2ccccn2)C[C@H]1C` it was 0.972 ± 0.052.
Regarding `CO[C@@H]1CN(C)C(=O)c2cc(NC(=O)Cc3ccccc3)ccc2OC[C@H](C)N(C(=O)c2ccccc2F)C[C@@H]1C`, the viability index turned out to be 1.065 ± 0.0062.
On to `CC(C)c1cn(CC[C@@H]2CC[C@@H](NS(=O)(=O)c3ccc(F)cc3)[C@@H](CO)O2)nn1`, for which the viability index came to 1.12 ± 0.12.
As for `CO[C@H]1CN(C)C(=O)c2cc(NC(=O)Nc3cc(F)ccc3F)ccc2OC[C@@H](C)NC[C@@H]1C`, the viability index came out at 1.1 ± 0.025.
The compound `COc1ccc(NC(=O)N(C)C[C@@H]2Oc3c(NC(=O)CCCCCC(=O)Nc4ccccc4N)cccc3C(=O)N([C@H](C)CO)C[C@H]2C)cc1` registered a viability index of 0.893 ± 0.012.
In the case of `Cn1cnc(S(=O)(=O)N[C@@H]2CC[C@@H](CC(=O)NCC3CCCCC3)O[C@H]2CO)c1`, the viability index turned out to be 1.023 ± 0.0049.
The value for `CN(C)CC(=O)N1[C@H](C(=O)NC2CCC2)[C@@H](CO)[C@@H]2Cn3c(ccc(-c4cccc(F)c4)c3=O)[C@@H]21` was 1.02 ± 0.031.
`O=C(Nc1ccccc1F)N1CC(=O)N2[C@H](CO)[C@@H](c3ccc(-c4cccnc4)cc3)[C@H]2C1` returned a viability index of 0.984 ± 0.021.
Take `C[C@@H](NC(=O)C[C@@H]1CC[C@H]2[C@@H](COc3ccc(NC(=O)C4CCOCC4)cc3C(=O)N2C)O1)c1ccccc1`: the viability index was 1.09 ± 0.045.
In the case of `COc1cccc(-c2ccc3c(c2)O[C@H](CN(C)Cc2cccnc2)[C@H](C)CN([C@@H](C)CO)S3(=O)=O)c1` it was 0.982 ± 0.053; in that of `COCC(=O)N1CC2(C1)[C@H](c1ccc(-c3cccc(F)c3)cc1)[C@@H](CO)N2C(=O)C1CC1`, 1.11 ± 0.046.
